Reference: article PMC3792642 (Acta Crystallographica Section D: Biological Crystallography, 2013)

Molecular target: MtbDsbA (Rv2969c) (Mycobacterium tuberculosis, UniProt O33272)
Test: ITC of VKOR-derived peptides binding to MtbDsbA
Parameters: species or system Mycobacterium tuberculosis H37Rv
Conditions: 298 K; for ΔH (enthalpy change) / N (apparent stoichiometry): 2-4 mM peptide into 100 µM MtbDsbA, 25 mM HEPES pH 7.4, 100 mM NaCl; for ΔH (enthalpy change): mean and SD of curve fits from two ITC runs; for N (apparent stoichiometry): two ITC runs; for −TΔS (temperature x entropy change): calculated from the free energy equation (ΔH − TΔS = −RTlnK d,app)

| SMILES | ΔH (enthalpy change) [kcal/mol] | N (apparent stoichiometry) | −TΔS (temperature x entropy change) [kcal/mol] |
| --- | --- | --- | --- |
| CC[C@H](C)[C@H](NC(=O)[C@@H]1CCCN1C(C)=O)C(=O)N[C@@H](Cc1ccc(O)cc1)C(=O)N[C@H](C(=O)N1CCC[C@H]1C(=O)N[C@@H](CO)C(=O)N[C@@H](CS)C(=O)N[C@@H](CC(N)=O)C(=O)N[C@H](C(=O)N[C@@H](CC(N)=O)C(=O)N1CCC[C@H]1C(N)=O)C(C)C)C(C)C [PIYVPSCNVNP] (Ac-PIYVPSCNVNP-NH2) | -10.9 ± 0.0 | 1.0 | 3.5 |
| CC(=O)N[C@H](C(=O)N1CCC[C@H]1C(=O)N[C@@H](CO)C(=O)N[C@@H](CS)C(=O)N[C@@H](CC(N)=O)C(=O)N[C@H](C(=O)N[C@@H](CC(N)=O)C(=O)N1CCC[C@H]1C(N)=O)C(C)C)C(C)C [VPSCNVNP] (Ac-VPSCNVNP-NH2) | -7.1 ± 4.0 | 1.0 |  |
| CC(=O)N[C@H](C(=O)N1CCC[C@H]1C(=O)N[C@@H](CO)C(=O)N[C@@H](CS)C(=O)N[C@@H](CC(N)=O)C(=O)N[C@H](C(N)=O)C(C)C)C(C)C [VPSCNV] (Ac-VPSCNV-NH2) | -6.8 ± 0.2 | 1.0 | -0.1 |
| CC(=O)N[C@@H](Cc1ccc(O)cc1)C(=O)N[C@H](C(=O)N1CCC[C@H]1C(=O)N[C@@H](CO)C(=O)N[C@@H](CS)C(=O)N[C@@H](CC(N)=O)C(=O)N[C@H](C(N)=O)C(C)C)C(C)C [YVPSCNV] (Ac-YVPSCNV-NH2) | -7.0 ± 0.4 | 1.1 | -0.5 |

Peptide text beside a SMILES is read from it.
